Measured values as given in PubChem BioAssay AID743279 (National Center for Advancing Translational Sciences (NCATS), 2014).
Screen size: about 360,000 compounds; about 17,000 (4.7%) were called active. Inconclusive results, whose numbers are uncertain, are shown with a selection of clear calls. Rule as the data show it: active = activity change below about -50%; inconclusive = mostly about -30% to -49%; inactive = weaker than that.

Test: qHTS for Inhibitors of Inflammasome Signaling: IL-1-beta AlphaLISA Primary Screen
Conditions: THP-1 LPS/ATP IL-1B secretion, 16 h; at 57.5 µM, stronger effect = lower value
How it was run: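 Secreted IL-1B measured by AlphaLISA bead assay after 16 h compound exposure of THP-1 cells; compounds (final up to 57.5 uM) added 1 h before LPS (250 ng/mL) and ATP (1.25 mM) stimulation; lower signal means less secretion.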
% is scaled to controls: 0 for no effect and ±100 for the full control effect.

Which activity change does the source give for `Cc1nnc(N/N=C/c2c(Cl)cccc2Cl)n1N` here?
Its activity change is active: -105%.

With `CCOc1ccccc1NC(=O)c1cccc2c1C(=O)N(C1CCCCC1)C2` as the molecule, how does the activity change read?
Its activity change is inconclusive: -36.1%.

Which activity change does the source give for `CCc1nc(SCC(=O)N2c3ccccc3CC2C)c2c(C)c(C)sc2n1` (configuration not stated) here?
Its activity change is inconclusive: -37.2%.

Which activity change does the source give for `O=C1CCCC(O)=C1N=Nc1ccc2c(c1)OCO2` here?
Its activity change is inactive: -0.995%.

For `O=C(Nc1ccc(F)c(F)c1)C1CCN(S(=O)(=O)c2cccs2)CC1`, which activity change is on record?
Its activity change is inconclusive: -44%.

With `Cc1ccc(S(=O)(=O)N(CCCO)CC(O)CON=C2c3ccccc3-c3ccccc32)cc1` (configuration not stated) as the molecule, how does the activity change read?
The activity change was inconclusive: -37.8%.

Which activity change does the source give for `CN(C(=O)COC(=O)/C=C/c1cccs1)C1CCCCC1` here?
The activity change was inactive: -29.4%.

Which activity change does the source give for `O=C1/C(=C/c2ccccc2)CCc2ccc(Cl)nc21` here?
The activity change was active: -105%.

With `CCOC(=O)Nc1ccc2c(c1)N(C(=O)CN)c1ccccc1CC2` as the molecule, how does the activity change read?
The activity change was active: -63.4%.

For `COc1cccc(/C=C2/Sc3ccc(C(=O)NCCN4CCCC4)cc3NC2=O)c1`, which activity change is on record?
The activity change was inconclusive: -36.3%.

Which activity change does the source give for `COC(=O)c1cc(Nc2cc(C)nc3ncnn23)cc(C(=O)OC)c1` here?
The activity change was inactive: 13.5%.

Which activity change does the source give for `COc1ccc(C2c3c(-c4ccccc4O)n[nH]c3C(=O)N2Cc2ccco2)cc1` (configuration not stated) here?
The activity change was active: -74.8%.

Which activity change does the source give for `CN1CCN(C2=C(Cl)C(=O)N(C3CCCCC3)C2=O)CC1` here?
Its activity change is inconclusive: -32%.

Which activity change does the source give for `CCOc1cc(-c2ccccc2)nc(N)n1` here?
Its activity change is inconclusive: -35.1%.

For `O=S(=O)(c1ccccc1)N1CCN(c2ncnc3scc(-c4ccccc4)c23)CC1`, which activity change is on record?
Its activity change is inactive: -4.22%.

Which activity change does the source give for `CC(C)Oc1ccc(C(=O)/C(=C\c2cccs2)c2nc3ccccc3o2)cc1` here?
The activity change was active: -67.2%.

For `Cc1ccc(NS(=O)(=O)c2ccc(OCC(=O)Nc3cccc([N+](=O)[O-])c3)c(C)c2)cc1`, which activity change is on record?
Its activity change is inconclusive: -39.2%.

For `CN(CCc1ccccc1)C(=O)c1ccc(NC(=O)Cc2ccc(NC(=O)C3CCN(C(=O)C4CCCC4)CC3)cc2)cc1`, which activity change is on record?
Its activity change is inconclusive: -44.2%.

With `CCC(c1nc2ccccc2[nH]1)n1c(-c2ccnc(Cl)c2)nc2ccccc21` (configuration not stated) as the molecule, how does the activity change read?
The activity change was inconclusive: -48.3%.

With `O=C(CN(Cc1ccccc1)S(=O)(=O)c1ccccc1)N/N=C/c1ccc([N+](=O)[O-])cc1` as the molecule, how does the activity change read?
The activity change was inconclusive: -49.2%.

Which activity change does the source give for `CN(C)C1=NC[C@H](Cc2ccccc2)N1CCCCc1ccccc1` here?
The activity change was inconclusive: -36.6%.

With `Cc1ccccc1NC(=O)C(Cl)=C(Cl)Cl` as the molecule, how does the activity change read?
The activity change was active: -97%.

For `CCOC(=O)c1ccc(NC(=O)Nc2ccc3c(c2)OCCO3)cc1`, which activity change is on record?
The activity change was inconclusive: -39.2%.

With `Cc1ccc(/C=C2/Sc3ccccc3N(CC(=O)NCCCOC(C)C)C2=O)cc1` as the molecule, how does the activity change read?
The activity change was inconclusive: -39.6%.

With `N/C(Cc1nc(-c2ccc(F)cc2)cs1)=N\O` as the molecule, how does the activity change read?
The activity change was active: -53.8%.

With `COC(=O)C[C@@H]1C[C@@H]2c3cc(NC(=O)NC4CCCCC4)ccc3O[C@@H]2[C@H](CO)O1` as the molecule, how does the activity change read?
Its activity change is inconclusive: -40.2%.

With `CCOc1ccc(NS(=O)(=O)c2ccc(C(=O)N(C)CC(=O)Nc3ccc(C)cc3)cc2)cc1` as the molecule, how does the activity change read?
The activity change was inconclusive: -45.4%.

With `C#CCOC(=O)Nc1cccn(Cc2c(Cl)cccc2Cl)c1=O` as the molecule, how does the activity change read?
Its activity change is inconclusive: -41.1%.

For `Cc1cc(C)cc(NC(=O)c2cc(S(=O)(=O)N3CCCC3)cn2C)c1`, which activity change is on record?
The activity change was inconclusive: -37.3%.

For `CC(C)(C)NC(=O)c1ccc(COc2ccc(Cl)cc2Cl)o1`, which activity change is on record?
The activity change was active: -69.1%.

With `Clc1nc(NCc2cccnc2)nc(N2CCOCC2)n1` as the molecule, how does the activity change read?
The activity change was inactive: 44.4%.

With `O=C(COC(=O)C1CCC1)Nc1cc(S(=O)(=O)N2CCCCC2)ccc1Cl` as the molecule, how does the activity change read?
The activity change was inactive: -3.45%.

With `CCc1nnc(NC(=O)Cc2cc(OC)c(OC)c(OC)c2)s1` as the molecule, how does the activity change read?
The activity change was inactive: 64.5%.

Which activity change does the source give for `C=CCNC(=S)NNC(=O)COc1ccc2cc(Br)ccc2c1` here?
The activity change was inconclusive: -42.2%.

For `O=C1CC(C(=O)N(c2ccc(F)cc2)C(C(=O)NC2CCCC2)c2ccccn2)CS1` (configuration not stated), which activity change is on record?
Its activity change is inactive: 7.19%.

For `O=C(Cn1c(=S)[nH]c2ccccc2c1=O)N1CCc2ccccc2C1`, which activity change is on record?
Its activity change is inactive: 25%.

For `O=C(Nc1cc2c3c(c1)C1CCCC1CN3CC1CCCC21)c1ccccc1` (configuration not stated), which activity change is on record?
Its activity change is inconclusive: -37.3%.

With `CCc1ccccc1NC(=O)CCN1C(=O)C2C3CCC(C3)C2C1=O` (configuration not stated) as the molecule, how does the activity change read?
Its activity change is inactive: -2.63%.

For `Cc1ccc(N2Cc3ccccc3C2=S)cc1`, which activity change is on record?
Its activity change is inconclusive: -32.8%.

Which activity change does the source give for `CN(Cc1cc(Cl)cc(Cl)c1O)Cc1c(O)ccc2ccccc12` here?
The activity change was active: -96.1%.

With `CC(NC(=O)/C(C#N)=C/c1ccc(N2CCOCC2)cc1)c1ccccc1` (configuration not stated) as the molecule, how does the activity change read?
Its activity change is inconclusive: -40.6%.

With `CCc1ccc(S(=O)(=O)c2nnn3c2nc(N2CCOCC2)c2ccccc23)cc1` as the molecule, how does the activity change read?
The activity change was inconclusive: -44.7%.

For `CC(NC(=O)CCC(=O)c1ccccc1)c1ccc(F)cc1` (configuration not stated), which activity change is on record?
The activity change was inactive: -14.9%.

For `CCCCOCCCNC(=O)C[C@@H]1C[C@@]2(C(=O)OCC)CCCC=C2N(Cc2cccc3ccccc23)C1=O`, which activity change is on record?
Its activity change is inconclusive: -47.3%.

With `CC1(c2ccc(Cl)cc2)NC(=S)N2C1NC(=S)N2c1ccccc1` (configuration not stated) as the molecule, how does the activity change read?
Its activity change is inconclusive: -30.3%.

With `COc1ccccc1CCC(=O)Nc1cccc(S(=O)(=O)N2CCCC2)c1` as the molecule, how does the activity change read?
The activity change was inactive: 3.86%.

With `Cc1cc(F)cc(-c2cc(C(=O)NCc3ccccc3)[nH]n2)c1` as the molecule, how does the activity change read?
The activity change was inconclusive: -35.2%.

For `COc1ccc(OC)c(CCNC(=O)CCc2nnc3ccc(N4CCOCC4)nn23)c1`, which activity change is on record?
The activity change was inactive: 4.45%.

With `COc1ccc(-c2nnc(-c3cccs3)o2)cc1OC` as the molecule, how does the activity change read?
Its activity change is inconclusive: -47.4%.

Which activity change does the source give for `COc1ccc(-c2cc(C(F)(F)F)nc(SCC(=O)N3CCOCC3)n2)cc1OC` here?
The activity change was inconclusive: -48.9%.

For `CCOc1ccc2nc(NC(=O)CSC3=NCCS3)sc2c1`, which activity change is on record?
The activity change was active: -92.1%.

For `Cc1cc(C)nc(/N=C(\N)Nc2ccccc2-c2ccccc2)n1`, which activity change is on record?
The activity change was active: -98%.

Which activity change does the source give for `Cc1ccc(C(NC(=O)N2CCCCC2)=C(Cl)Cl)cc1F` here?
The activity change was active: -70.6%.

For `COc1ccc(C2Nc3ccccc3NC3=C2C(=O)CC(C)(C)C3)cc1O` (configuration not stated), which activity change is on record?
The activity change was inconclusive: -31.2%.

Which activity change does the source give for `Cc1ccc(NC(=O)CC(O)(C(F)(F)F)C(F)(F)F)cc1` here?
Its activity change is inconclusive: -38.2%.

For `COc1ccc(N2CCN(c3cc(C)nc4ccc(OC)cc34)CC2)cc1`, which activity change is on record?
The activity change was inactive: -1.46%.

For `O=C(O)c1cn(-c2ccccc2)nc1-c1cccnc1`, which activity change is on record?
The activity change was inactive: 4.09%.
